In PubChem BioAssay AID686970 (National Center for Advancing Translational Sciences (NCATS), 2013):
Among all 360,000 compounds or so, about 6,000 (1.7%) were called active. Inconclusive means that the source gave no clear call. Such entries were picked first, then a sample of the others. The call rests on the fitted dose curve; in most records, active means well fitted cell-killing curve with a large enough effect; inconclusive means small, poorly fitted or top-dose-only effect, or effect the other way; inactive means flat fitted curve, though single readings scatter. No potency is given beside an inconclusive call; the fits are too rough.

Test: qHTS for induction of synthetic lethality in tumor cells producing 2HG: qHTS for the HT-1080-NT fibrosarcoma cell line;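 further: NT is the 2HG producing partner of a matched IDH1 knockdown line; nearly all actives have a fitted effect of over 55% in size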;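 on activity, negative = less viability: 0% = DMSO-treated cells and -100% = media-only wells without cells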
Details: HT-1080-NT fibrosarcoma viability, CellTiter-Glo ATP luminescence, 48 h; activity, negative = less viability: at 46.1 µM (top of the series) unless noted
In short: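 750 cells/well, RPMI + 5% FBS; 2 h settle, compound pin-transfer, 48 h at 37 degrees C. CellTiter-Glo 10 min RT, luminescence. Normalized to DMSO and media-only wells.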
Potency means the concentration at half of the fitted maximal effect; tags describe the fitted curve by direction and shape.

Row | Structure (SMILES) | Potency | activity, negative = less viability
1 | CCN(CC)CCCNC(=O)c1cc(-c2ccc(Cl)cc2)on1 | inconclusive [cytotoxic, single point] | 
2 | C=CCOc1ccc2cccc(/C=N/NC(=O)c3cc4cc([N+](=O)[O-])ccc4s3)c2c1 |  | inactive: 0.111%
3 | Nc1cc(=O)[nH]c(SCc2ccc(Cl)cc2Cl)n1 |  | inactive: -11.8%
4 | Cc1ccc(Nc2c(N)c(=O)oc3ccccc23)cc1 | inconclusive [cytotoxic, single point] | 
5 | Cc1ccc(-c2cc3nn(-c4ccccc4)c(N)c3c(=O)o2)cc1 | inconclusive [cytotoxic, single point] | 
6 | Cc1cn2c(=O)c(C(=O)N3CCN(c4ccccc4Cl)CC3)cnc2s1 |  | inactive: -3.19%
7 | COc1cc(SC)ccc1C(=O)Nc1ccc(C)cc1C | inconclusive [cytotoxic, single point] | 
8 | Cc1ccc(N2CCN(C(=O)c3cc(-c4ccc(F)cc4)[nH]c3C)CC2C)cc1 (configuration not stated) | active: 23.1 µM | 
9 | CC(C)CC(COCc1cccc(Cl)c1)N1CCN(C(=O)c2ccc(C(F)(F)F)cc2)CCC1=O (configuration not stated) | inconclusive [cytotoxic, single point] | 
10 | O=C(N/N=C\C=C\c1ccc([N+](=O)[O-])o1)c1cccs1 | inconclusive [cytotoxic, full curve] | 
11 | COc1cccc(-n2cc3c(c2-c2ccccc2)c(=O)n(C)c(=O)n3C)c1 |  | inactive: -10.2%
12 | COc1ccc(CC(N)c2csc(Nc3cccc(OC)n3)n2)cc1 (configuration not stated) | active: 25.9 µM | 
13 | Cn1cc(C2OC(=O)c3ccccc32)c2ccccc21 (configuration not stated) | inconclusive [cytotoxic, partial curve] | 
14 | CCOC(=O)c1ccn(S(=O)(=O)c2ccc(C)cc2)c1-c1ccccc1 | inconclusive [cytotoxic, single point] | 
15 | CC(=O)Nc1nnc(-c2ccco2)o1 |  | inactive: 18.9%
16 | C#CC(=O)N(c1ccc(OC)c(OC)c1)C(C(=O)NC1CCCC1)c1cccs1 (configuration not stated) | active: 0.116 µM | 
17 | Cc1ccc(/C=N/NC(=O)c2cccc3ccccc23)o1 | inconclusive [cytotoxic, single point] | 
18 | Cc1ccc(Cn2nnc3c(=O)[nH]c(C4CCN(S(=O)(=O)c5ccc(S(=O)(=O)NC6CC6)cc5)CC4)nc32)cc1 | inconclusive [cytotoxic, partial curve] | 
19 | Cc1cccc(C2c3[nH]c4ccccc4c3CCN2C(=O)Cc2n[nH]c(C)n2)n1 (configuration not stated) |  | inactive: -0.625%
20 | N#CCC(=O)N/N=C/c1cccc(Oc2ccccc2)c1 |  | inactive: -12.8%
21 | CCOC(=O)c1nnn(-c2nonc2N)c1CN1CCc2ccccc2C1 |  | inactive: -7.28%
22 | Cc1ccc(S(=O)(=O)c2nc(S(C)(=O)=O)sc2N2CCC(C(N)=O)CC2)cc1 |  | inactive: -6.93%
23 | CC1(C)CC(C(CCN(Cc2ccccc2)C(=O)c2ccco2)c2ccc(F)cc2)CCO1 (configuration not stated) | inconclusive [cytotoxic, single point] | 
24 | C/C(=N\NC(=O)CC1N=C(Cc2ccccc2)NNC1=O)c1ccc(C)cc1 (configuration not stated) | inconclusive [cytotoxic, single point] | 

Row | Structure (SMILES) | Potency | activity, negative = less viability
25 | CC(=O)N(Cc1ccc(F)cc1)C1=C(NCCc2ccccc2)C(=O)c2ccccc2C1=O | active: 5.8 µM | 
26 | O=C1c2cc(F)ccc2-n2c1nc1ccccc1c2=O | inconclusive [cytotoxic, full curve, poor fit] | 
27 | CCOC(=O)c1ccc(NS(C)(=O)=O)cc1 | inconclusive [rising, partial curve] | 
28 | Cc1ccc(S(=O)(=O)N2C(=O)c3cccc4cccc2c34)cc1 | inconclusive [cytotoxic, single point] | 
29 | O=C1N=c2ccccc2=C1c1sc(=S)n(Cc2ccccc2Cl)c1O |  | inactive: 11.6%
30 | CC(C)NC(=O)c1ccccc1NS(=O)(=O)c1ccc(Br)s1 | inconclusive [cytotoxic, single point] | 
31 | COc1ccc(NC(=O)c2cccc(Oc3ccccc3)c2)cn1 | active: 5.17 µM | 
32 | C=CCOC(=O)C1=C(C)NC(SCC)=C(C#N)C1c1ccc(Cl)cc1 (configuration not stated) | active: 9.2 µM | 
33 | CCCCNC(=O)c1nc(C2CCNCC2)oc1-c1cccc(C(F)(F)F)c1 | inconclusive [cytotoxic, single point] | 
34 | O=S(=O)(c1ccc(-c2csc(-c3cccnc3)n2)cc1)N1CCCCC1 |  | inactive: 8.39%
35 | CN(C)CCCN(C(=O)c1ccc(S(=O)(=O)N2CCCCCC2)cc1)c1nc2ccc(F)cc2s1 | inconclusive [cytotoxic, single point] | 
36 | Cc1ccc(NC(=O)C2CCN(S(=O)(=O)c3c(C)n[nH]c3C)CC2)c(C)c1 |  | inactive: 10.1%
37 | Cc1ccccc1NC(=O)Nc1ccccn1 |  | inactive: 14.6%
38 | Cc1nc(CN(C)C(=O)c2cc(COc3ccc4ncccc4c3)on2)cs1 | active: 4.11 µM | 
39 | CC(C)C(N)c1csc(Nc2nncc3ccccc23)n1 (configuration not stated) | inconclusive [cytotoxic, single point] | 
40 | Cc1cccc(-[n+]2c(C)cc(C)c3c(=O)[nH]c(=O)[nH]c32)c1 |  | inactive: 2.71%
41 | O=C(Nc1cccc(S(=O)(=O)Nc2ccc(SC(F)F)cc2)c1)C1CCC1 | active: 14.6 µM | 
42 | O=c1ccn([C@@H]2O[C@H](CNCc3c(OCc4ccccc4F)ccc4ccccc34)[C@@H](O)[C@H]2O)c(=O)[nH]1 | inconclusive [cytotoxic, single point] | 
43 | CC1CCCN(C(=O)c2ccc(S(=O)(=O)N3CCC(c4nc5ccccc5s4)CC3)cc2)C1 (configuration not stated) | inconclusive [cytotoxic, single point] | 
44 | Cc1cc(N/N=C/c2ccc(F)cc2)nc(-n2nc(C)cc2C)n1 |  | inconclusive: -16.8% [cytotoxic]
45 | CN(C/C=C/C#CC(C)(C)C)Cc1cccc2ccccc12 |  | inconclusive: 6.79%
46 | O=C(CCCN1C(=O)/C(=C/c2cccs2)SC1=S)Nc1ccc(O)cc1 | inconclusive [cytotoxic, partial curve] | 
47 | COCCNc1nc(NCCOc2ccccc2Cl)c2sc(-c3ccccc3)cc2n1 | inconclusive [cytotoxic, single point] | 
